Measured values: the supplement of paper PMC11417369
± gives the standard deviation of the averaged measurements. This is one part of the list.

These sequences were tested on PfAP2-EXP AP2 domain (GST-tagged) (assay: gcPBM binding intensity (ln(normalized median fluorescence intensity)); higher = stronger DNA binding).
Summary of the method: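 Binding intensity is defined as the maximum Masliner-normalised natural-log median intensity across replicate spots for either probe orientation. It was measured on an Agilent 4 × 180k array of primer-extended double-stranded 36-bp intergenic genomic probes and negative controls, to which GST-tagged P. falciparum DNA-binding domains made in E. coli were applied for 1 h in 1× PBS with 1% milk, 0.2 mg/ml BSA, 0.5% salmon testes DNA and 0.03% Triton X-100. Detection was by Alexa488 anti-GST antibody and scanning at 488 nm.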

| Sequence | gcPBM binding intensity (ln) |
| --- | --- |
| TCCAATATATTTATGAGTACTTATAAATTATACGTT [XGTACX_site742] | 8.64 ± 0.29 |
| TTCATACATATTTGAAGTACATTTAAAAATGTCCTT [XGTACX_site747] | 8.56 ± 0.19 |
| GAAGTAATTTCATATACACACATATACATACATACA [CACACA_site6753] | 8.96 ± 0.31 |
| TTTGAATAAAAACAAAAAATTAAATTAAATTAAATA [CACACA_negctrl_site312] | 8.15 ± 0.5 |
| ATTGTGTTAATAAAATGTACATTTTCTCTACATTAA [XGTACX_site2766] | 8.71 ± 0.38 |
| TATTTATAATTATAATAATATATATATATATATATA [TGCATGCA_negctrl_site173] | 9.97 ± 0.28 |
| ATTAAATAAAAAAACACACACATATATACCTATATA [CACACA_site5837] | 8.54 ± 0.46 |
| AATAAAACATAATAATGTACTCAAAGGTTTAACTTG [XGTACX_site4711] | 8.48 ± 0.41 |
| CAAAACATTTTATCTACACACATATATAAATAAATA [CACACA_site3220] | 8.36 ± 0.33 |
| AACGTGTGGAGAATTATAAATGAGTAAAAAATATAT [XGTACX_negctrl_site562] | 8.96 ± 0.37 |
| AAAATAAAAGAATAAAAATATGAAACTTTTTTAAAA [GTGCAC_negctrl_site348] | 8.12 ± 0.43 |
| GGGGGGAGGGTGAATACACACGTAATAATCATAAAC [CACACA_site8502] | 10.6 ± 0.22 |
| ATATATGTGTATGTATGTACTTATATTTTTTTTTAT [XGTACX_site1733] | 8.37 ± 0.33 |
| TCCGTTATATATGTGTGTACATATAATATATCCTCA [XGTACX_site2588] | 8.65 ± 0.36 |
| GCAAATCAATTTTTTTTTAAAACTCATTTTTTCGTT [CACACA_negctrl_site1136] | 8.79 ± 0.41 |
| AAAAATGAAAGTAAGACATGCATGGAATTTTTTTTA [TGCATGCA_site347] | 9.06 ± 0.47 |
| TTTTTTTTTTATGAAAGTACATATGAAAAATACGAA [XGTACX_site3451] | 8.71 ± 0.21 |
| TTTTATCATCTTTTTACATTATGTATAAATATTTTC [CACACA_negctrl_site206] | 8.77 ± 0.42 |
| AAAAGAACAATGAAGTGTACTAATAATTATTTATGT [XGTACX_site6649] | 8.72 ± 0.35 |

| Sequence | gcPBM binding intensity (ln) |
| --- | --- |
| AGCAAAACATAAAATAGTACACATTTAACAAAAAAA [XGTACX_site2921] | 8.65 ± 0.4 |
| ATATAATATATTTTTGAACACACAATATATATATAT [CACACA_site9368] | 9.78 ± 0.18 |
| TTTTGTTGAAAAGTAAGATATTCCAACATGTTTTTA [CACACA_negctrl_site391] | 8.36 ± 0.57 |
| TAACTAATATATAAAACACACATCATAAAAATATAA [CACACA_site768] | 8.51 ± 0.61 |
| ATATCATTTTCCTGCACACATAAATTTATATAATAT [CACACA_site1048] | 9.15 ± 0.31 |
| ACACATAAATGAATAAATAAATAAATATAAATATAA [CACACA_negctrl_site1784] | 8.36 ± 0.29 |
| GGTGGGGAGGAGTAATGTACAAATTAACATATTATG [XGTACX_site6666] | 9.78 ± 0.28 |
| TTCTTACATGAGTGTACACACTTTTTTTCAGAAAAT [CACACA_site4215] | 8.93 ± 0.35 |
| TTATAAAATATTTATGCATGTGAAGAATATTATAAA [TGCATGCA_site1047] | 8.8 ± 0.3 |
| GAAAAAAGTATCAAGGTGCGTATATACATCAAAATA | 8.96 ± 0.39 |
| AATAGTCGGGTGCATACACACCTTAAATATAATATA [CACACA_site8271] | 8.59 ± 0.092 |
| TATATATTATAAAATTGTACATATATTAAATTTTTT [XGTACX_site5852] | 8.22 ± 0.18 |
| AAATGTTGAGCAGTACAAAAAAAAAAAAAAAAAAAA [GTGCAC_negctrl_site518] | 8.21 ± 0.47 |
| CAAAACAAAACGTATGCACACAATTAAAATATTAAA [CACACA_site5815] | 8.69 ± 0.55 |
| AAGATACCAATGAAATGTACATATATATAAATATAA [XGTACX_site2135] | 8.68 ± 0.41 |
| TTTTTTTTTTAATTGGGTACATATATAATTTAAGAA [XGTACX_site2732] | 8.23 ± 0.36 |
| CATTTATATAAAAGAACACACATATAAAATATTATT [CACACA_site3601] | 8.54 ± 0.52 |
| TAGTTTTTTATATATTGTACAAATAATATATGATAT [XGTACX_site4220] | 8.46 ± 0.33 |
| AGTGATTATTAATAATGTACATATCTATAAATATAT [XGTACX_site4734] | 8.36 ± 0.4 |

| Sequence | gcPBM binding intensity (ln) |
| --- | --- |
| TTTTTTTTTTTTTTCTTACAATTTATTGAACAAATG [XGTACX_negctrl_site515] | 8.43 ± 0.48 |
| GTATTGCATGAGGACACACACAAAAAAAATATAGAT [CACACA_site6500] | 8.84 ± 0.48 |
| TATATATTTCATCCTTGTACACATTTGTGTTTACAT [XGTACX_site1132] | 8.75 ± 0.3 |
| AATAAATAAATATATATATATATATATATATATATA [CACACA_negctrl_site365] | 10.1 ± 0.4 |
| TATCAAAATTGTAATTGTACTTGTAAGTGGATATAT [XGTACX_site5949] | 8.68 ± 0.3 |
| ACAATTTACACTTAAACACACAAAAAAAAGTTATAT [CACACA_site7056] | 8.61 ± 0.59 |
| ATATATTGCACTTTTTGTACATAATGAAAAATTTTT [XGTACX_site8223] | 9.41 ± 0.24 |
| ACCTTAATAAAAAAAAGTACAAACATGTTCAAATTG [XGTACX_site1556] | 9.32 ± 0.45 |
| TACATATTGATATATACACACAAAAAAATAAATTCT [CACACA_site6198] | 8.48 ± 0.38 |
| TTTTTTATAGTACATTACCAAAAAAAAAAAAAAAAA [GTGCAC_negctrl_site549] | 8.1 ± 0.4 |
| AATTCGTACCTCATTTGTACATATATATATATATAT [XGTACX_site5513] | 10.1 ± 0.28 |
| CATACACCCATACATACACACATACAGATATATATA [CACACA_site5123] | 8.62 ± 0.35 |
| TCACCATATAAACGTGCACACTACAAAAATATATAA [CACACA_site5413] | 9.32 ± 0.42 |
| ATATAAATATTATAATGTACATATAATATATTTATT [XGTACX_site5212] | 8.2 ± 0.29 |
| CTTTTATTTTATTTTAGTACGCAACATTCTCTATAT [XGTACX_site7279] | 8.88 ± 0.38 |
| TATTTATTTAAAAATTGTACGTAGGATTATACACTT [XGTACX_site286] | 8.34 ± 0.26 |
| TAAAATTTGTACATAGTGCAATTTTTTTTTTTTTTT | 8.52 ± 0.16 |
| ATCTCTGTATGTTAGACACACATATTTTAATATGTT [CACACA_site4244] | 8.57 ± 0.34 |
